Test results published in patent US20260297165 (published 2026).

Key:
Experiment in all cases: SPR
C3 = C3 (human, UniProt P01024)
C3b = C3b (human, UniProt P01024)
C3c = C3c (human, UniProt P01024)
Chain of C3c (P01024 23-667, chain 1 of 3): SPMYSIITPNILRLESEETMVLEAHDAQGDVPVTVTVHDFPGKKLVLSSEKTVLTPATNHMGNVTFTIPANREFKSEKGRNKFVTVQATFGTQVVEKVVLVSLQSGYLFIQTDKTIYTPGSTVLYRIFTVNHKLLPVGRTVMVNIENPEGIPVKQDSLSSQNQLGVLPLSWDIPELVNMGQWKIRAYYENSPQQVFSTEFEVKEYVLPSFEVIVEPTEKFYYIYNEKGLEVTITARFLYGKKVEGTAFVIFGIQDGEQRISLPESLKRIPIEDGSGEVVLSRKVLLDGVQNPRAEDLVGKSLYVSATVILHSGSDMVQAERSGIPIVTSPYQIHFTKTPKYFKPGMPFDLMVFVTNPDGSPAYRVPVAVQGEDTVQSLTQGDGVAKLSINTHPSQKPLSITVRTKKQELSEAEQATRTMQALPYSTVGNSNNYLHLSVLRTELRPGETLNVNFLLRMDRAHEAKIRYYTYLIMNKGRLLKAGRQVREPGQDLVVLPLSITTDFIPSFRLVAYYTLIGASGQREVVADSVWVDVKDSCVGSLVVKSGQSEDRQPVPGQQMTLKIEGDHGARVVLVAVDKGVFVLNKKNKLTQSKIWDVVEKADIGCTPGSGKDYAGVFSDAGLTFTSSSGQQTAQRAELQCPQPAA
Chain of C3c (P01024 749-954, chain 2 of 3): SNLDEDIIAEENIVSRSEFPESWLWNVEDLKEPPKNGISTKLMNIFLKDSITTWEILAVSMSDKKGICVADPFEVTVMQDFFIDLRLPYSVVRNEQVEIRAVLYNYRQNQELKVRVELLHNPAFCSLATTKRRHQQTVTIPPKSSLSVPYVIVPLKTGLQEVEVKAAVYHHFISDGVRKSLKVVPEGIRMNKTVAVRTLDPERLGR
Chain of C3c (P01024 1321-1663, chain 3 of 3): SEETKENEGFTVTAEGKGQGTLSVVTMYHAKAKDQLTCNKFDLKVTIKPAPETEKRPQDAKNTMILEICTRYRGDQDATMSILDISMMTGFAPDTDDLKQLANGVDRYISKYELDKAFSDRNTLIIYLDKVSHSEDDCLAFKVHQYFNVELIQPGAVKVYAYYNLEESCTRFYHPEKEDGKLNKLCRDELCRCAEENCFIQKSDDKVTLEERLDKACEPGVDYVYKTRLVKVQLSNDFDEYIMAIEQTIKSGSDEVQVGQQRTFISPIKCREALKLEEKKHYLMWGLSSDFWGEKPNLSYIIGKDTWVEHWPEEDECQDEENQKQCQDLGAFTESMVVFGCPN

Chain of C3 (P01024 23-1663): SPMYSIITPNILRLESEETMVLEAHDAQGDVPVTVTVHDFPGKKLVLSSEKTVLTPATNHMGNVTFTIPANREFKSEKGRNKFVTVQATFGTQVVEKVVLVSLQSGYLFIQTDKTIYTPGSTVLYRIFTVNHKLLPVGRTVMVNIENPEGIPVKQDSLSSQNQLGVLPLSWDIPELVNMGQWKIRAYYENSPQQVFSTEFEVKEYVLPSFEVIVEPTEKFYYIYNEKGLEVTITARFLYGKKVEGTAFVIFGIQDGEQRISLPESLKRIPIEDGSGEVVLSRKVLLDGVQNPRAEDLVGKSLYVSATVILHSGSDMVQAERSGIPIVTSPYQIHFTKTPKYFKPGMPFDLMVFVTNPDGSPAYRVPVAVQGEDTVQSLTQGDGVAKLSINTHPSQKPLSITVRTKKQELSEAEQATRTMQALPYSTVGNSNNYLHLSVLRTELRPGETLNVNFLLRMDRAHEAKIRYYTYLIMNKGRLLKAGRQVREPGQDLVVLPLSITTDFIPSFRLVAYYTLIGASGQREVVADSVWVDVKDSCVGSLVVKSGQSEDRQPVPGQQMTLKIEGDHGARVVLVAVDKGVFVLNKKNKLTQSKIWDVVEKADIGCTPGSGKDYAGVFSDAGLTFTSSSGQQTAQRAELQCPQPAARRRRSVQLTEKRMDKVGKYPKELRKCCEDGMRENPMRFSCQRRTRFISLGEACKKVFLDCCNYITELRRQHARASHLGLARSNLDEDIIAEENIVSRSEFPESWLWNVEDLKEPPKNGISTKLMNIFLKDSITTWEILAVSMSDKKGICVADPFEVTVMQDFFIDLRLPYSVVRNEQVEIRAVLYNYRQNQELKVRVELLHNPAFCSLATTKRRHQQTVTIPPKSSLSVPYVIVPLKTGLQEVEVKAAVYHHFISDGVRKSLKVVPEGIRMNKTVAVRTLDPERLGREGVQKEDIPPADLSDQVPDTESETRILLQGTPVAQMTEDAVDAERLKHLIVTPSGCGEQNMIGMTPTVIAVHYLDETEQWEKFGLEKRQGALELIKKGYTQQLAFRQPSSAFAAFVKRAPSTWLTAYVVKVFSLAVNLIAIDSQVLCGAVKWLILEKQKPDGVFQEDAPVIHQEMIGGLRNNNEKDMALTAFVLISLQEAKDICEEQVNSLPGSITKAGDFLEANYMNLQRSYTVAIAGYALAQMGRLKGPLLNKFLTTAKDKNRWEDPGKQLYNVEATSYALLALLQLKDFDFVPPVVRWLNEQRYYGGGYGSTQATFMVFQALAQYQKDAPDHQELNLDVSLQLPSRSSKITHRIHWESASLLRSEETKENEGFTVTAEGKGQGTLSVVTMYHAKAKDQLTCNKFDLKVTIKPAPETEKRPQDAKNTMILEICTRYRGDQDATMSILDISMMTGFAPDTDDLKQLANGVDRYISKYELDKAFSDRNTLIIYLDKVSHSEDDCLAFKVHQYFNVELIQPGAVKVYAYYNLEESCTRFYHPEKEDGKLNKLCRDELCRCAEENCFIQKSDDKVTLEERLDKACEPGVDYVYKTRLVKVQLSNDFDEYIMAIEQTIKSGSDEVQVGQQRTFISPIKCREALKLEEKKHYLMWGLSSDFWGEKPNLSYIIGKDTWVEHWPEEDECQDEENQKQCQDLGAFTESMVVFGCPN
Chain of C3b (P01024 23-667, chain 1 of 2): as the sequence (P01024 23-667, chain 1 of 3) above
Chain of C3b (P01024 749-1663, chain 2 of 2): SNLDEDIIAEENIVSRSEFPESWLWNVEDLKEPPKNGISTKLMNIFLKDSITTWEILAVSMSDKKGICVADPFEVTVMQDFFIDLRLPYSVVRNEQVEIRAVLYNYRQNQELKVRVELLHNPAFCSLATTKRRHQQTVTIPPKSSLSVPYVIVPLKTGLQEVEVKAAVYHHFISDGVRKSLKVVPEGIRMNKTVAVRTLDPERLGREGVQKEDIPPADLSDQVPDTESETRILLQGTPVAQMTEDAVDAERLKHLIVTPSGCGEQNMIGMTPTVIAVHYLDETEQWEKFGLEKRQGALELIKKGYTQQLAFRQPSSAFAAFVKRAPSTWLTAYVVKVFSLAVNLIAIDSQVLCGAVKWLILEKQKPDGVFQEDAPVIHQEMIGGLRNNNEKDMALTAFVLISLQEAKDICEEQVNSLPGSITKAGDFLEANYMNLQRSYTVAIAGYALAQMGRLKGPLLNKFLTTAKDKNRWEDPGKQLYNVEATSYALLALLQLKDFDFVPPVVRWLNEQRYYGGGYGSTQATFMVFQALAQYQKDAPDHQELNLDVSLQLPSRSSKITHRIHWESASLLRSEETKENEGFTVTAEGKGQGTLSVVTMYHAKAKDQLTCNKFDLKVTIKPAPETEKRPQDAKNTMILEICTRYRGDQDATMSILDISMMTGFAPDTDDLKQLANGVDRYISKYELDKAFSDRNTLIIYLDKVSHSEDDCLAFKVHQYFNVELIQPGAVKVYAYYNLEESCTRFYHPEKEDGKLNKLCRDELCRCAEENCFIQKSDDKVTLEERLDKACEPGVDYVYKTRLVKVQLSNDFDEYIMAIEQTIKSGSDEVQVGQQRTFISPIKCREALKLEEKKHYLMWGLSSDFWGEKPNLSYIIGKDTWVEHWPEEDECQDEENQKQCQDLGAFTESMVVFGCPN

Row | Binder | Kd (C3) [nM] | Kd (C3b) [nM] | Kd (C3c) [nM]
1 | Vector GGG protein Fc4-C3i (protein) MEFGLSWLFLVAILKGVQCDKRV[sequence of human IgG4 Fc with S228P (EU numbers) omitted]GGGGSGGGGSGGGGSGGGGSGICVWQDWGAHRCTN | 25.4 | 810 | 424
2 | Vector KPT/KMR protein C3i(N15Q)-Fc4-C3i(N15Q) (protein) MEFGLSWLFLVAILKGVQCDKGICVWQDWGAHRCTQGGGGSGGGGSGGGGSDKRV[sequence of human IgG4 Fc with S228P (EU numbers) omitted]GGGGSGGGGSGGGGSGGGGSGICVWQDWGAHRCTQ | 5.67 | 0.96 | 0.382
3 | Vector KKA protein C3i(N15Q)-Fc4-Endostatin (protein) MEFGLSWLFLVAILKGVQCDKGICVWQDWGAHRCTQGGGGSGGGGSGGGGSDKRV[sequence of human IgG4 Fc with S228P (EU numbers) omitted]GGGGSGGGGSGGGGSGGGGSHSHRDFQPVLHLVALNSPLSGGMRGIRGADFQCFQQARAVGLAGTFRAFLSSRLQDLYSIVRRADRAAVPIVNLKDELLFPSWEALFSGSEGPLKPGARIFSFDGKDVLRHPTWPQKSVWHGSDPNGRRLTESYCETWRTEAPSATGQASSLLGGRLLGQSAASCHHAYIVLCIENSFMTASK | 2.31 | 9.2 | 8.62
4 | Vector KPC protein C3i(N15Q)-Fc4 (protein) MEFGLSWLFLVAILKGVQCDKGICVWQDWGAHRCTQGGGGSGGGGSGGGGSDKRV[sequence of human IgG4 Fc with S228P (EU numbers) omitted] | 1.37 | 42.9 | 53.5
5 | Vector GGE protein (DK)C3i-Fc4-CNP36 (protein) MEFGLSWLFLVAILKGVQCDKGICVWQDWGAHRCTNGGGGSGGGGSGGGGSDKRV[sequence of human IgG4 Fc with S228P (EU numbers) omitted]GGGGSGGGGSGGGGSGGGGSEHPNARKYKGANKKGLSKGCFGLKLDRIGSMSGLGC | 48.9 | 12.7 | 7.97
6 | Vector KKT protein C3i(N15Q)-Fc4-CNP36 (protein) MEFGLSWLFLVAILKGVQCDKGICVWQDWGAHRCTQGGGGSGGGGSGGGGSDKRV[sequence of human IgG4 Fc with S228P (EU numbers) omitted]GGGGSGGGGSGGGGSGGGGSEHPNARKYKGANKKGLSKGCFGLKLDRIGSMSGLGC | 4.71 | 9.63 | 10.8
7 | Vector KAG protein Fc4-C3i(N15Q) (protein) MEFGLSWLFLVAILKGVQCDKRV[sequence of human IgG4 Fc with S228P (EU numbers) omitted]GGGGSGGGGSGGGGSGGGGSGICVWQDWGAHRCTQ | 50.3 | 125 | 121
